Data: PubChem BioAssay AID588855 (National Center for Advancing Translational Sciences (NCATS), 2011)
Several values for one entry are separate records, joined by “and”; a condition that tells them apart may be missing. Identical values can stand only once. Screen size: about 410,000 compounds; about 5,000 (1.2%) were called active. Inconclusive means that the source gave no clear call. Such entries were picked first, then a sample of the others. The call rests on the fitted dose curve; in most records, active means well fitted inhibition curve with a large enough effect; inconclusive means small, poorly fitted or top-dose-only effect; inactive means no such curve, though single readings can be large or run the other way. Potencies of inconclusive entries are doubtful fits and often do not repeat.

Assay: qHTS for Inhibitors of TGF-b; further: nearly all actives have a fitted effect of over 65% in size
Conditions: HepG2 CAGA-GFP TGF-b/SMAD3 reporter, GFP fluorescence, 18 h, TGF-beta stimulated, 500 pg/mL final; series mostly up to 46.1 µM; activity, negative = inhibition: at the top concentration
How it was run: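 GFP signal (ex488/em500-530) from TGF-beta-stimulated HEPG2 CAGA-GFP cells, 500 pg/mL final, 18 h at 37 degrees C in DMEM plus 1% FBS, normalized to unstimulated and DMSO-stimulated controls.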
On the % scale 0 is the no-effect control and ±100 the full control effect; potency means the concentration at half of the fitted maximal effect; tags describe the fitted curve by direction and shape.

SMILES | Potency | activity, negative = inhibition
CCCCCCCCNCCS(=O)(=O)NC1CCCCC1 | inconclusive: 25.1 µM [inhibitor, single point] | 
CCOc1cccc(CN2CCN(CCCc3ccccc3)C(CCO)C2)c1O (centres undefined) | inconclusive: 20 µM [inhibitor, single point] | 
Cc1ccc2ncccc2c1NC(=S)NC(=O)c1ccccc1 |  | inactive: -12.7%
CCOc1ccc(NC(=S)NNc2ccnc3cc(Cl)ccc23)cc1 | inconclusive: 28.2 µM [inhibitor, single point] | 
O=C(COc1ccc([N+](=O)[O-])cc1)N1CCC(c2nc3ccccc3s2)CC1 | inconclusive: 5.01 µM [inhibitor, partial curve] | 
COc1ccc(N=c2nc(-c3ccccc3)n(-c3ccc(C)cc3)s2)cc1 | active: 3.98 µM | 
CCCC1=Nc2cc(C(=O)NCCN3CCOCC3)ccc2Sc2ccc(C)cc21 | inconclusive: 35.5 µM [inhibitor, single point] | 
COc1ccc(C(=O)c2coc3c2C(=O)C(=O)c2ccccc2-3)cc1 | inconclusive: 10 µM [inhibitor, partial curve, poor fit] | 
Cc1ccc(NC(=O)C2(C)CCN2Cc2csc3ccccc23)cc1 (centres undefined) | inconclusive: 25.1 µM [inhibitor, single point] | 
Cc1ccc2c(=O)c(C(=O)c3ccccc3)cn(CC(=O)Nc3ccc(C)c(Cl)c3)c2n1 |  | inactive: 30.8%
CCN(CC)c1ccc(NC(=O)c2ccccn2)cc1S(=O)(=O)Nc1ccccc1OC | inconclusive: 35.5 µM [inhibitor, single point] | 
Cc1cc(C(=O)N2CCCC(C(=O)c3ccc4ccccc4c3)C2)nn1C (centres undefined) |  | inactive: -23.7%
Cc1csc(NC(=O)c2cccc(S(=O)(=O)N3CCN(C)CC3)c2)n1 |  | inactive: 1.13%
CC[C@H](C)Cc1cn([C@@H](CCCN=C(NC(=O)OC(C)(C)C)NC(=O)OC(C)(C)C)C(=O)NCCCCCCCCCCC(=O)N2CCN(C(=O)OC(C)(C)C)CC2)nn1 | inconclusive: 20 µM [inhibitor, single point] | 
CCOC(=O)COc1cc(Br)c(/C=N/Nc2ccccc2)cc1OC |  | inactive: 13.2%
COc1ccc(OCCCn2cc(/C=C3/C(=N)N4C=C(C)SC4=NC3=O)c3ccccc32)cc1 |  | inactive: 5.1%
Cc1ccccc1Nc1ccc([N+](=O)[O-])cn1 | inconclusive: 22.4 µM [inhibitor, single point] | 
O=C(Nc1cccnc1)c1ccc([N+](=O)[O-])s1 | active: 10 µM | 
Fc1cccc(Cl)c1CNc1ccc(N2CCCC2)cc1 | inconclusive: 15.8 µM [inhibitor, single point] | 
C=C1C(=O)[C@]23C[C@H]1CC[C@H]2[C@]1(C)[C@@H](OC(C)=O)CC[C@@](C)(C(=O)O)[C@H]1C[C@@H]3O | active: 5.62 µM | 
COCC(C)n1c(C)cc(C(=O)COC(=O)c2n[nH]c3ccccc23)c1C (centres undefined) |  | inactive: 22.8%
COc1cccc(NC(=O)c2cc(-c3ccncc3)nc3c(C)cc(C)cc23)c1 |  | inactive: -16.8%
C/C=C1\COC(C(=O)NC)(C(F)(F)F)C=C1C=C1CCCCC1 (centres undefined) | active: 15.8 µM | 

SMILES | Potency | activity, negative = inhibition
CCCc1ccc(Oc2cn[nH]c2-c2ccc(O)c(C)c2O)cc1 | inconclusive: 35.5 µM [inhibitor, single point] | 
CSCC(C)N1CCC(CO)(CCCc2ccccc2)CC1 (centres undefined) |  | inactive: 38.5%
Cc1nc2ccn(Cc3ccco3)c(=O)c2cc1C(=O)Nc1ccc(F)cc1 | inconclusive: 8.91 µM [inhibitor, partial curve, poor fit] | 
O=c1[nH]c(C2CCN(S(=O)(=O)c3ccccc3)CC2)nc2c1nnn2Cc1ccccc1 |  | inactive: 8.16%
CCOC(=O)C1=C(C)NC(C)=C(C(=O)OCC)C1C(=O)OCC(=O)N(C)Cc1ccccc1 |  | inactive: 0%
CN(C)CCCN(Cc1ccccc1)C(=S)Nc1cccc(C(F)(F)F)c1 | inconclusive: 11.2 µM [inhibitor, partial curve, poor fit] | 
COc1ccc(CN([C@H](C)CO)S(=O)(=O)N(Cc2ccccc2)[C@H](CO)C(C)C)cc1 | inactive | 
COC(=O)c1ccc(NC(=O)COc2ccc(S(=O)(=O)NC(C)(C)C)cc2)cc1 |  | inactive: -0.325%
Cc1oc2ccc(NS(=O)(=O)c3cccc4cccnc34)cc2c1C(=O)OC(C)C | inconclusive: 35.5 µM [inhibitor, single point] | 
N#Cc1c(-c2ccco2)nc(SCc2ccc(F)cc2)[nH]c1=O | inconclusive: 17.8 µM [inhibitor, partial curve, poor fit] | 
O=C(NCCCn1ccnc1)c1ccc(COc2ccccc2)o1 | inconclusive: 35.5 µM [inhibitor, single point] | 
CCOc1ccc(N=C(C)c2ccccc2O)cc1 | inconclusive: 6.31 µM [inhibitor, single point] | 
O=C(Nc1ccc(Cl)cc1)N1CCC(CN2CCCCCC2)CC1 |  | inactive: -19.1%
N#CC1CC(c2ccccc2)Nc2cc(Cl)ccc2N1 (centres undefined) | inconclusive: 15.8 µM [inhibitor, partial curve, poor fit] | 
CC(NC(=O)C1CCN(C(=O)Nc2ccccc2)CC1)c1ccccc1 (centres undefined) |  | inactive: 5.52%
Cc1ccc(C(=O)c2oc3ccccc3c2NC(=O)c2cc(=O)c3cc(C)ccc3o2)cc1 |  | inactive: 7.54%
O=[N+]([O-])c1ccccc1S(=O)(=O)NC1CCCCCCC1 |  | inactive: -16.7%
CCOC(=O)c1c(NC(=O)CSc2nc3ccc(C)cc3[nH]2)sc2c1CC(C)(C)NC2(C)C | inconclusive: 31.6 µM [inhibitor, single point] | 
COC(=O)c1ccccc1COc1cccn2c(N(C)Cc3cccs3)c(C)nc12 | inconclusive: 35.5 µM [inhibitor, single point] | 
CCOc1ccc(C(Nc2cccnc2)c2cc(Cl)c3cccnc3c2O)cc1 (centres undefined) | inconclusive: 12.6 µM [inhibitor, partial curve] and inconclusive: 14.1 µM [inhibitor, partial curve, poor fit] | 
Cc1ccc(Cn2cccc(NC(=O)CCC3CCCC3)c2=O)cc1 | inconclusive: 20 µM [inhibitor, single point] | 
CC(C)C1=NN(C(=O)c2ccccc2)C(O)(C(C)(C)C)C1 (centres undefined) | inconclusive: 0.708 µM [inhibitor, full curve, poor fit] | 
COc1ccc(Cc2c(-c3ccc(C)cc3)nc3ccc(Cl)cn23)c(C)c1 | inconclusive: 20 µM [inhibitor, single point] | 

SMILES | Potency | activity, negative = inhibition
Cc1coc2c(C)c3oc(=O)c(CCC(=O)N4CCC(C(=O)NCCCC(=O)O)(c5ccccc5)CC4)c(C)c3cc12 | inconclusive: 17.8 µM [inhibitor, single point] | 
Cc1cc(/C=N/NC(=O)CC#N)c(C)n1-c1ccc([N+](=O)[O-])cc1 | inconclusive: 3.16 µM [inhibitor, single point] | 
CC[C@@H](C)C(NC(=O)OC(C)(C)C)c1cn([C@@H](Cc2cc3ccccc3[nH]2)C(=O)N2CCN(C(=O)OC(C)(C)C)CC2)nn1 (some centres undefined) | inconclusive: 35.5 µM [inhibitor, single point] | 
COc1cc(Cl)c(C)cc1NC(c1ccccc1)c1nnc(-c2ccccc2Cl)o1 (centres undefined) | active: 17.8 µM | 
Cc1ccc(-c2cc(C(=O)N3CCN(c4ccc(O)cc4)CC3)c3ccccc3n2)cc1 | inconclusive: 35.5 µM [inhibitor, single point] | 
O=C(O)c1cccc2c1C(=O)c1ccc(-c3ccc(Cl)c(C(F)(F)F)c3)cc1S2(=O)=O |  | inactive: 5.7%
CC(C)CC(=O)Nc1ccnn1C1CCN(C(=O)c2ccc(Cl)cc2F)CC1 |  | inactive: 11.4%
Cc1ccc(S(=O)(=O)Nc2ccccc2CNc2ccc(Br)cn2)cc1 | inconclusive: 35.5 µM [inhibitor, single point] | 
Cc1ccc(N=Nc2ccc(N)cc2C)c(S(N)(=O)=O)c1 |  | inactive: 5.74%
COc1ccccc1/C=C\C=N\n1c(C2CCCCC2)n[nH]c1=S |  | inactive: 0%
COc1ccc(-c2nc(C#N)c(NC(C)c3ccccc3)o2)cc1OC (centres undefined) |  | inactive: 0.722%
COc1ccc(C(=O)N(Cc2ccc(N(C)C)cc2)CC2CCCO2)cc1 (centres undefined) |  | inactive: -27.3%
CC[C@H](C)Cc1cn([C@@H](CCCCNC(=O)OC(C)(C)C)C(=O)NCCCCCCCCCCC(=O)N2CCN(C(=O)OC(C)(C)C)CC2)nn1 | inconclusive: 12.6 µM [inhibitor, partial curve] | 
O=C(NCCc1ccc(C(F)(F)F)cc1)C1CCC(=O)N(CCCc2ccccc2)C1 (centres undefined) |  | inactive: -28.2%
Cc1ccc2[nH]c(=O)c(CN(CC3CCCO3)C(=S)NCc3ccco3)cc2c1 (centres undefined) | inconclusive: 3.16 µM [inhibitor, full curve, poor fit] | 
COc1ccc(NC(=O)CSc2cn(CCNC(=O)c3c(F)cccc3F)c3ccccc23)cc1 | inconclusive: 15.8 µM [inhibitor, single point] | 
O=C(NN=C(c1ccccc1)c1ccccc1)C(CCl)C1CCCCC1 (centres undefined) |  | inactive: 1.8%
CC(=O)NC(c1cccc([N+](=O)[O-])c1)c1ccc2cccnc2c1O (centres undefined) | inconclusive: 5.62 µM [inhibitor, partial curve, poor fit] | 
NC(=O)C1=C[C@@H](c2ccc(Br)cc2)C[C@@H](OCCCCO)O1 | inconclusive: 35.5 µM [inhibitor, single point] | 
COCCCn1c(=O)c2sccc2n2c(CCCC(=O)NC3CCC(C)CC3)nnc12 (centres undefined) |  | inactive: -6.53%
N#C/C(=C\c1c[nH]c2ccc(Br)cc12)c1ccccn1 | inconclusive: 35.5 µM [inhibitor, single point] | 
CC(=O)c1ccccc1OC(=O)c1ccc([N+](=O)[O-])o1 | inconclusive: 15.8 µM [inhibitor, single point] | 
COc1ccc(OC)c(C(Cc2ccnc3ccccc23)Cc2ccnc3ccccc23)c1 | inconclusive: 35.5 µM [inhibitor, single point] | 
